# Source: the supplement of paper PMC8728848
# The list shows a part of the results.
# Legend:
# Experiment in all cases: glycan array binding signal (z-score within array); higher = stronger binding
# Details in all cases: glycan notation: IUPAC condensed, linker removed
# [1] = target: Gal(b1-4)GlcNAc(b1-6)GalNAc
# Summary of the method: (§1)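 Negative Z-scores can be read as non-binding. The Z-score is calculated within each array and then averaged across arrays of one protein sequence at different concentrations or buffers and across linkers. Arrays, 3228 in all, were curated from the Consortium for Functional Glycomics database and kept only where the protein sequence was available.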
# [2] = target: Gal(b1-4)GlcNAc(b1-6)[Gal(b1-3)]GalNAc
# Summary of the method: as §1
# [3] = target: Gal(b1-4)GlcNAc(b1-6)[Gal(b1-4)GlcNAc(b1-3)]GalNAc
# Summary of the method: as §1
# [4] = target: Gal(b1-4)GlcNAc6P
# Summary of the method: as §1
# [5] = target: Gal(b1-6)Gal
# Summary of the method: as §1
# [6] = target: Gal3S(b1-3)GalNAc
# Summary of the method: as §1
# [7] = target: Gal3S(b1-3)GlcNAc
# Summary of the method: as §1
# [8] = target: Gal3S(b1-3)[Fuc(a1-4)]GlcNAc
# Summary of the method: as §1
# [9] = target: Gal3S(b1-4)Glc
# Summary of the method: as §1
# [10] = target: Gal3S(b1-4)Glc6S
# Summary of the method: as §1
# [11] = target: Gal3S(b1-4)GlcNAc
# Summary of the method: as §1
# [12] = target: Gal3S(b1-4)GlcNAc6S
# Summary of the method: as §1
# [13] = target: Gal3S(b1-4)[Fuc(a1-3)]Glc6S
# Summary of the method: as §1
# [14] = target: Gal3S(b1-4)[Fuc(a1-3)]GlcNAc
# Summary of the method: as §1
# [15] = target: Gal3S(b1-4)[Fuc(a1-3)]GlcNAc6S
# Summary of the method: as §1
# [16] = target: Gal3S4S(b1-4)GlcNAc
# Summary of the method: as §1
# [17] = target: Gal3S6S(b1-4)GlcNAc
# Summary of the method: as §1
# [18] = target: Gal3S6S(b1-4)GlcNAc6S
# Summary of the method: as §1
# [19] = target: Gal4S(b1-4)GlcNAc
# Summary of the method: as §1
# [20] = target: Gal4S6S(b1-4)GlcNAc
# Summary of the method: as §1
# [21] = target: Gal6P(b1-4)GlcNAc
# Summary of the method: as §1
# [22] = target: Gal6S(b1-3)GlcNAc
# Summary of the method: as §1
# [23] = target: Gal6S(b1-3)GlcNAc6S
# Summary of the method: as §1
# [24] = target: Gal6S(b1-4)Glc
# Summary of the method: as §1
# [25] = target: Gal6S(b1-4)Glc6S
# Summary of the method: as §1
# [26] = target: Gal6S(b1-4)GlcNAc
# Summary of the method: as §1
# [27] = target: Gal6S(b1-4)GlcNAc6S
# Summary of the method: as §1
# [28] = target: GalNAc(a1-3)Gal
# Summary of the method: as §1
# [29] = target: GalNAc(a1-3)GalNAc
# Summary of the method: as §1
# [30] = target: GalNAc(a1-3)GalNAc(b1-3)Gal(a1-4)Gal(b1-4)Glc
# Summary of the method: as §1
# [31] = target: GalNAc(a1-3)GalNAc(b1-3)Gal(a1-4)Gal(b1-4)GlcNAc
# Summary of the method: as §1
# [32] = target: GalNAc(b1-3)Gal
# Summary of the method: as §1
# [33] = target: GalNAc(b1-3)Gal(a1-4)Gal(b1-4)GlcNAc
# Summary of the method: as §1
# [34] = target: GalNAc(b1-3)Gal(a1-4)Gal(b1-4)GlcNAc(b1-3)Gal(b1-4)Glc
# Summary of the method: as §1
# [35] = target: GalNAc(b1-3)Gal(a1-6)Gal(b1-4)Glc
# Summary of the method: as §1
# [36] = target: GalNAc(b1-3)GalNAc
# Summary of the method: as §1
# [37] = target: GalNAc(b1-3)GlcNAc
# Summary of the method: as §1
# [38] = target: GalNAc(b1-4)Gal(b1-4)Glc
# Summary of the method: as §1
# [39] = target: GalNAc(b1-4)GlcNAc
# Summary of the method: as §1
# [40] = target: GalNAc(b1-4)GlcNAc(b1-2)Man
# Summary of the method: as §1
# [41] = target: GalNAc(b1-4)GlcNAc(b1-2)Man(a1-3)[GalNAc(b1-4)GlcNAc(b1-2)Man(a1-6)]Man(b1-4)GlcNAc(b1-4)GlcNAc
# Summary of the method: as §1
# [42] = target: GalNAc(b1-4)GlcNAc(b1-3)GalNAc(b1-4)GlcNAc
# Summary of the method: as §1
# [43] = target: GalNAc(b1-4)GlcNAc6S
# Summary of the method: as §1
# [44] = target: GalNAc(b1-6)GalNAc
# Summary of the method: as §1
# [45] = target: GalNAc3S(b1-4)GlcNAc
# Summary of the method: as §1
binder,measurement,setting,value
"BDCA-2 (Homo sapiens), Q8WTT0 (protein) MVPEEEPQDREKGLWWFQLKVWSMAVVSILLLSVCFTVSSVVPHNFMYSKTVKRLSKLREYQQYHPSLTCVMEGKDIEDWSCCPTPWTSFQSSCYFISTGMQSWTKSQKNCSVMGADLVVINTREEQDFIIQNLKRNSSYFLGLSDPGGRRHWQWVDQTPYNENVTFWHSGEPNNLDERCAIINFRSSEEWGWNDIHCHVPQKSICKMKKIYI",glycan array binding signal (z-score),[1],-0.179
same,glycan array binding signal (z-score),[2],-0.164
same,glycan array binding signal (z-score),[3],-0.166
same,glycan array binding signal (z-score),[4],-0.139
same,glycan array binding signal (z-score),[5],-0.12
same,glycan array binding signal (z-score),[6],-0.238
same,glycan array binding signal (z-score),[7],-0.137
same,glycan array binding signal (z-score),[8],-0.107
same,glycan array binding signal (z-score),[9],-0.163
same,glycan array binding signal (z-score),[10],-0.142
same,glycan array binding signal (z-score),[11],-0.136
same,glycan array binding signal (z-score),[12],0.385
same,glycan array binding signal (z-score),[13],-0.133
same,glycan array binding signal (z-score),[14],-0.167
same,glycan array binding signal (z-score),[15],-0.172
same,glycan array binding signal (z-score),[16],-0.193
same,glycan array binding signal (z-score),[17],0.209
same,glycan array binding signal (z-score),[18],0.611
same,glycan array binding signal (z-score),[19],-0.022
same,glycan array binding signal (z-score),[20],0.293
same,glycan array binding signal (z-score),[21],-0.088
same,glycan array binding signal (z-score),[22],-0.155
same,glycan array binding signal (z-score),[23],-0.179
same,glycan array binding signal (z-score),[24],-0.02
same,glycan array binding signal (z-score),[25],0.188
same,glycan array binding signal (z-score),[26],0.437
same,glycan array binding signal (z-score),[27],-0.168
same,glycan array binding signal (z-score),[28],-0.016
same,glycan array binding signal (z-score),[29],-0.119
same,glycan array binding signal (z-score),[30],-0.186
same,glycan array binding signal (z-score),[31],-0.114
same,glycan array binding signal (z-score),[32],-0.179
same,glycan array binding signal (z-score),[33],-0.21
same,glycan array binding signal (z-score),[34],-0.179
same,glycan array binding signal (z-score),[35],-0.178
same,glycan array binding signal (z-score),[36],0.03
same,glycan array binding signal (z-score),[37],-0.161
same,glycan array binding signal (z-score),[38],-0.08
same,glycan array binding signal (z-score),[39],-0.018
same,glycan array binding signal (z-score),[40],-0.164
same,glycan array binding signal (z-score),[41],-0.119
same,glycan array binding signal (z-score),[42],-0.182
same,glycan array binding signal (z-score),[43],-0.167
same,glycan array binding signal (z-score),[44],-0.153
same,glycan array binding signal (z-score),[45],-0.171
